The results in this text go back to paper PMC12136788.

T1: UNK ZnF1-6 (called full-length) (human, UniProt Q9C0B0 30-357)
T1 sequence: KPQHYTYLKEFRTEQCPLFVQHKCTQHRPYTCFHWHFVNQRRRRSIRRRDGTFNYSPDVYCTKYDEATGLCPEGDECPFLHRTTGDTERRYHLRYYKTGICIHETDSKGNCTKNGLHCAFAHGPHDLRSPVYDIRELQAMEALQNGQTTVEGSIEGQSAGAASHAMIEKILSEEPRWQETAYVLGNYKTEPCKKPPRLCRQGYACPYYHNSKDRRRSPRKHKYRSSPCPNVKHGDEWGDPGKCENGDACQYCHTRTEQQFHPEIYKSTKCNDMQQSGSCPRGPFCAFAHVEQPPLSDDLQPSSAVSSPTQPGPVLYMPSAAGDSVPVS

B1: chr2:176131361:176131462:+|CDS|ENSG00000175879|unk|total|mutant (ssRNA)
RNA: GGGAGUUCUACAGUCCGACGAUCGGAAUUUCUUUUUAACCCCUAUCUGACCAGGAAAAGAAGAAUCGAGGUUUCCCACGCCCCCGCCCUCACCGAGAGACAGGUAAAAAUCUGGUUCCAGAACAGGAGAAUGAAAUGGAAAAACAACAGAGGAUUGAGCAUCA
B2: chr3:107805913:107806014:+|3pUTR|ENSG00000114439|msi1_unk|FALSE|overlapping (ssRNA)
RNA: GGGAGUUCUACAGUCCGACGAUCUACAUGGAGAUUUAAGUUUAAGAUGGUUUAUAUAAUAGGUUAUACCUACAUUUAUAUUGUAGAAUAAAUAUUAAAAAGCCUGUUCCAGAGACUCCCAAGCAGCCUGGGCAGGCAGAUGUACAACAGAGGAUUGAGCAUCA
B3: chr2:171983412:171983537:+|3pUTR|ENSG00000128708|unk|total|mutant (ssRNA)
RNA: GGGAGUUCUACAGUCCGACGAUCUGAUGACUUUAAUUUUAAAAUCUUGUGACAUUUUGCUUAUACUAAAAGUUAUCUAUCUUCCGUUGAAUAUUUUCUUUUGGAGAGAUUGUAUAUUUUAAAAUACUGUUCCGAGUUUAUGAGCAACAGAGGAUUGAGCAUCA
B4: chr1:67003359:67003460:-|3pUTR|ENSG00000116704|msi1|total|mutant (ssRNA)
RNA: GGGAGUUCUACAGUCCGACGAUCACUCAAAAGCCGCAAAUCUGUAAAUUGGAUUAAGAACACCUGCCCUACCUACCCGGCAACCGUGUGAAUCCAAAUGCUGCAAUGUGAGAUGAGGUACAAGUAAAGAGCUGUGUUUUGUAACAACAGAGGAUUGAGCAUCA
B5: chr1:117368288:117368465:+|CDS|ENSG00000198162|unk|FALSE|unique (ssRNA)
RNA: GGGAGUUCUACAGUCCGACGAUCUUUUGGGGCAUUCUUUUUCCUUCCAGACUCUUCAAAACACAAACGCUUUGAUUUGGGUUUAGAAGAUGUGUUAAUUCCACAUGUAGAUGCCGGUAAAGGGGCUAAAAACCCCGGAGUCUUCAACAGAGGAUUGAGCAUCA
B6: chr1:52911722:52912021:-|three_prime_utr|ENSG00000121310|control|control|control (ssRNA)
RNA: GGGAGUUCUACAGUCCGACGAUCGGUUGGGAAAAUUGAGGCCUGCCUGAGUGUGUGACUUGUGGCAAGUCACUCUGGUCAUCUAGGGCAGAGGCUCCCCAGAUCCCAGGCCUCCUGCCUCCAGUCCCCAGCCCGCAGCCCAGGCAACAGAGGAUUGAGCAUCA
B7: chr1:45693489:45693605:+|CDS|ENSG00000159596|unk|total|mutant (ssRNA)
RNA: GGGAGUUCUACAGUCCGACGAUCAAUCCCCUUCGUUGCUCCACCACUGGUCAUGCUGAUGACAAAAACUUAUAUUCCCAUAUCCGCUUUUACUCAGAUGGCUUAUGGAGCCAGUUUCCUAUCUUUCUUGGGUGGGAUCAGAUGCAACAGAGGAUUGAGCAUCA
B8: chr1:37566712:37566813:+|3pUTR|ENSG00000163879|unk|total|mutant (ssRNA)
RNA: GGGAGUUCUACAGUCCGACGAUCGCUUUAUUUCCCCCGCACUGGUGAAGGGCUUCAACUGUCAAACCUCAGAACAAAUGCAUCCGGGCCUCCGAAAUGUCAAUGGGGCAGGAAGAAAACACAAUUUCUAACUGCCUGUUUUUGCAACAGAGGAUUGAGCAUCA
B9: chr1:150220393:150220494:-|3pUTR|ENSG00000143401|msi1_unk|total|mutant (ssRNA)
RNA: GGGAGUUCUACAGUCCGACGAUCAUUGUAUGCCGAGAAAAAUUUUCAUUGACUCCCAUUGUGGAAUUCCCCCGCAAUUUAUUCCGACUUAAUUUUUUAAAUUCAAGCUUACUGUAUCCGUCAUUUUCCGCCCAUAAUUAAAACCAACAGAGGAUUGAGCAUCA
B10: chr14:21351797:21351898:-|3pUTR|ENSG00000092201|msi1|total|mutant (ssRNA)
RNA: GGGAGUUCUACAGUCCGACGAUCGAGGAAGGCUCAAAGGAGUCAACAUUUAUAUCUGGAAGGGACAAGUCAUGCCUUGGGCCCCGAAUACCCUGAUGAGAAAAGAGAAGAGGAAGGGAGGCCAUAUCUACAACACAGCCUCUCCAACAGAGGAUUGAGCAUCA
B11: chr5:159157431:159157536:-|3pUTR|ENSG00000145860|unk|total|mutant (ssRNA)
RNA: GGGAGUUCUACAGUCCGACGAUCCAAAAAGUGUUUUUCAGACCUCGGUAUUCCUAAUGUGGGAUGUGACUUUAUUUUAUUUUCCGCCGCAAAUUUGGAUGCCGACUGACAGACACCGCUGAAUGUCUUAAUAAAUUUAAAUUUCAACAGAGGAUUGAGCAUCA
B12: ENSG00000198589:be:win_6451|CDS|ENSG00000198589|bound_else_gene|NA|bound_elsewhere_windowed (ssRNA)
RNA: GGGAGUUCUACAGUCCGACGAUCGCUGUGAUGUUCAACUUCCCAGACCCUGCAACAGUAAAGAAAGUGGUUAACUAUCUACCUCGUGUUGGCGUUGGAACAAGUUUUGGAUUGCCUCAAACCAGACGUAUUUCAUUAGCUAGUCAACAGAGGAUUGAGCAUCA
B13: chr8:140515610:140515764:+|3pUTR|ENSG00000104472|unk|FALSE|unique (ssRNA)
RNA: GGGAGUUCUACAGUCCGACGAUCUUUUGGAAUCAGUUCUUAUAAACAGCUCGAUUCAGUUUUAGCUAAAUUUAUAGUUUAGGUAGUAUGUUACAUUUGAAUUUUUGUCUUAAGAAAAGUUGACUGUUCAGAUAUUUUUCUACUCAACAGAGGAUUGAGCAUCA
B14: chr3:196828865:196828966:+|3pUTR|ENSG00000180370|msi1|total|mutant (ssRNA)
RNA: GGGAGUUCUACAGUCCGACGAUCUGCUCCUUUUGAGUUGCUUUUGCGUUUCUCAUGCCCCGGCAAGUGUAACCGAAAUUAUGCCGCUCCUUAUGUUGGCAAAGGAGCUCUAUACCGUUUCACUUUGUAUAAAAGUCCGGACCACAACAGAGGAUUGAGCAUCA
B15: chr1:93888438:93888539:-|3pUTR|ENSG00000023909|msi1|total|mutant (ssRNA)
RNA: GGGAGUUCUACAGUCCGACGAUCAGAUAUUUUUCCUGUCAUUGAUGAGAUAUAUCAGAGUAACUGGAGCCGCUGGGAUUUACCCGCCGUGUAAAUAAAAUUCACUCUUCAAUACAUGAAUGGAAACUUAAAUUUUUUUUUAUGCAACAGAGGAUUGAGCAUCA
B16: chr8:22006149:22006250:+|3pUTR|ENSG00000130227|msi1|FALSE|unique (ssRNA)
RNA: GGGAGUUCUACAGUCCGACGAUCGAAUGUAUGAACUGGAGGAAGUUACUACAGUGGAAGGGUUCUUAAUAACAAGGUCUACCUAGCAUGAAGUAUUUAACAUUCUCCCAUCCCUUAAAAAAUAUACAUUUUUAUAAAAUGAAACAACAGAGGAUUGAGCAUCA
B17: chr4:113382420:113382521:+|3pUTR|ENSG00000145362|msi1|FALSE|bound_elsewhere (ssRNA)
RNA: GGGAGUUCUACAGUCCGACGAUCUCUUCAGGUCUUUAGAUCUUGGACAAGUUGGCAGGGUAUUUUAAAAGCUAUAACUACUGUAGUUUUCCAGUUUUCAUUGCUGCUUUAGCAAACCACGCUGUCUUACAGUGGUACUUUCUUCAACAGAGGAUUGAGCAUCA
B18: chr8:41262982:41263083:-|3pUTR|ENSG00000104332|msi1|FALSE|unique (ssRNA)
RNA: GGGAGUUCUACAGUCCGACGAUCCAACCGGGCCCUCUCUCUGCGGCAGAGUCCUUAGUGGAGGGGUUUACCUGGAACAUUAGUAGUUACCACAGAAUACGGAAGAGCAGGUGACUGUGCUGUGCAGCUCUCUAAAUGGGAAUUCAACAGAGGAUUGAGCAUCA
B19: chr4:109463114:109463221:+|CDS|ENSG00000138802|unk|total|mutant (ssRNA)
RNA: GGGAGUUCUACAGUCCGACGAUCAGGAGCACAGCAGUUGUACAGCAGGGGUCCUCCUGCCCCUCAUAUUGUGGGAUCCACUCCCGGAUCUUUCCAAGGUGCUGCAUCGUCAGCAUCCCAUUUGCAUACGAGUGCCUCCCAACCCAACAGAGGAUUGAGCAUCA
B20: chr4:67617988:67618115:-|3pUTR|ENSG00000033178|unk|total|mutant (ssRNA)
RNA: GGGAGUUCUACAGUCCGACGAUCAAAUGCCGAAUGUUAAAAAUUAUUGCCCGGGCCGUCUUUUUUUUUUCCAGAAACCUAAUCCGGGUAUUAAAUUUUGUGUUUUUUUUGUUUUUUUUUUUUAAACAGAAGCAUGUUAUUUCACAACAGAGGAUUGAGCAUCA
B21: chr12:110381781:110381892:-|CDS|ENSG00000196510|unk|FALSE|unique (ssRNA)
RNA: GGGAGUUCUACAGUCCGACGAUCAAGGCCAUUCAGCUGAACAGUAAUAGUGUUCAAGCUCUGCUACUUAAGGGAGCAGCACUUAGGAACAUGGGCAGAGUCCAAGAAGCAAUAAUCCACUUUCGGGAGGCCAUACGGCUCGCACAACAGAGGAUUGAGCAUCA
B22: ENSG00000175470:stop:overlap|stop_codon|ENSG00000175470|stop_codon|NA|stop_codon (ssRNA)
RNA: GGGAGUUCUACAGUCCGACGAUCACAAUGUCAUUGCCGUGGCUGCCACCAAUAACUUGUACAUAUUCCAGGACAAAAUCAACUAGAGACGCGAACGUGAGGACCAAGUCUUGUCUUGCAUAGUUAAGCCGGACAUUUUUCUGUCAACAGAGGAUUGAGCAUCA

Some of the results follow.

The assay has as its target T1, UNK ZnF1-6 (called full-length). Description: nsRBNS (natural sequence RNA bind-n-seq); RBNS binding buffer (assumed for nsRBNS): 25 mM Tris pH 7.5, 150 mM KCl, 3 mM MgCl2, 0.01% Triton X-100, 500 ug/ml BSA, 20 U/ml SUPERase-In, 4 C; UNK is unkempt and MSI1 is Musashi-1; names of the RNAs are library labels; protein concentration not given here; high values mean tight binding.
Turning to B1, the binding signal is 0.829 enrichment R. Consider B2, for which the binding signal worked out at 1.89 enrichment R. In turn, B3 gave a binding signal of 0.599 enrichment R. Regarding B4, the binding signal is 0.544 enrichment R. As for B5, the figure is 0.338 enrichment R.

B6 showed a binding signal of 0.779 enrichment R.

Turning to B7, the binding signal was 0.584 enrichment R. As for B8, the binding signal was 0.542 enrichment R. The figure for B9 is 2.56 enrichment R; for B10 it is 1.92 enrichment R; for B11 it is 0.813 enrichment R. On to B12, for which the binding signal stood at 0.809 enrichment R. Regarding B13, the binding signal was 6.28 enrichment R.

For B14, the binding signal was 0.638 enrichment R.

The molecule B15 had a binding signal of 0.609 enrichment R. As for B16, the figure is 0.757 enrichment R; as for B17, 0.392 enrichment R. The figure for B18 is 1.22 enrichment R; for B19 it is 0.738 enrichment R. B20 registered a binding signal of 0.765 enrichment R. As for B21, the binding signal stood at 0.854 enrichment R.

Regarding B22, the binding signal worked out at 0.704 enrichment R.
